The text below walks through data of PubChem BioAssay AID1645887 (National Center for Advancing Translational Sciences (NCATS), 2021).

“And” between values parts separate entries of the source, which are not always exact repeats. Equal values may be shown once. About 40 (0.2%) of roughly 16,000 compounds were called active. About 1% were inconclusive and are not listed. The call rests on the fitted dose curve; in most records, active means well fitted activation curve with a large enough effect; inconclusive means small, poorly fitted or top-dose-only effect, or another doubt; inactive means no such curve, though single readings can be large or run the other way. The list shows a part of the results.
On the % scale 0 is the no-effect control and ±100 the full control effect.

Sequence of UniProt Q8WZA2 (Q8WZA2 whole entry, looked up): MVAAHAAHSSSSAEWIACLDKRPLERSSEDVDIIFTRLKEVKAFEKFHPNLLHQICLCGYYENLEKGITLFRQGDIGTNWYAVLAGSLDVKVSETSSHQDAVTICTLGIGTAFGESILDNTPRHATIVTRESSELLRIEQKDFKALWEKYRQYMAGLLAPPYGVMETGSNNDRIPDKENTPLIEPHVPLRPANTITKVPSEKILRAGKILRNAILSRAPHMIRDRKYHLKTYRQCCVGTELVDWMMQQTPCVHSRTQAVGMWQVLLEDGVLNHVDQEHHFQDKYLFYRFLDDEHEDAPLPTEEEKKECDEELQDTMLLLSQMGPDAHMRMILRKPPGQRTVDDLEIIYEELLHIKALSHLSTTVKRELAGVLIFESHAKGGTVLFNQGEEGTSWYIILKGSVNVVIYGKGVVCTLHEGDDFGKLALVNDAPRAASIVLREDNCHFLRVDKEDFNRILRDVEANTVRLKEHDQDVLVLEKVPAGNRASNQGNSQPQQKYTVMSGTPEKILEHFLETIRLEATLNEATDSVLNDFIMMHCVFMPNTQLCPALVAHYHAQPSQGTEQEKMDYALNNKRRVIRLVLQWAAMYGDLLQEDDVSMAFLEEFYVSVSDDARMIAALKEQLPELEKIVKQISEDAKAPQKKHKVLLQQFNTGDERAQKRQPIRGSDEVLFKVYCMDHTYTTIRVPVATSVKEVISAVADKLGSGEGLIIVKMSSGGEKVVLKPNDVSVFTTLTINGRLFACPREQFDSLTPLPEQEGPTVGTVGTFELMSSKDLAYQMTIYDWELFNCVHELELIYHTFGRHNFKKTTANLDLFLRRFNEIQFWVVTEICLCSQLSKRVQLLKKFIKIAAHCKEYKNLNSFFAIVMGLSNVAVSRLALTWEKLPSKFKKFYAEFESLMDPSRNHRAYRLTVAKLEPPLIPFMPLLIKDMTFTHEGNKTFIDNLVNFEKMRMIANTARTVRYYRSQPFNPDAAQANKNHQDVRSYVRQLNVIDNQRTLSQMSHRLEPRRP

The target in this assay is Rap guanine nucleotide exchange factor 4 (Homo sapiens) (UniProt Q8WZA2). Kind of assay: Validation qHTS for agonist of cAMP-regulated guanine nucleotide exchange factor 4 (EPAC2).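 Further: exchange makes BODIPY-GDP fluorescence drop when released from Rap1B; series mostly up to about 150 µM.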 The conditions noted are these: EPAC2 Rap1B BODIPY-GDP exchange, fluorescence; activation: active compounds read high. Summed up:
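Signal normalized against 6.5 mM cAMP as agonist control. Mix of EPAC2 (100 nM), RAP1B-BODIPY-GDP (250 nM) and GDP (50 uM) was read kinetically at 480/540 nm, every 5 min over 30 min, after 5 min room-temperature incubation with compound.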
Consider `O=C(N[C@@H]1CCC(=O)N(CC[C@H](Sc2ccc(Br)cc2)c2ccccc2)CC1)OCc1ccccc1`, for which the activation was inactive: -6.81%.
With `O=C(OCC(O)CO)c1ccccc1Nc1ccnc2cc(Cl)ccc12` (stereo not given) the figure was inactive: -37.1% and inactive: -1.78%; with `CC(=O)Oc1cc2c(c(C)c1OC(C)=O)CC=C1[C@]3(C)CC[C@]4(C)CC[C@@](C)(C(=O)O)CC4[C@]3(C)CC[C@]12C` (stereo not given in full), inactive: -18.6%; with `COc1ccccc1CNc1nc(-c2ccoc2)nc2ccccc12`, inactive: 3.68%.
For the compound `C#Cc1cccc(Nc2ncnc3cc(OCCOC)c(OCCOC)cc23)c1`, the activation is inactive: -17.6%.
With `C[C@H](CCCC(C)(C)O)[C@H]1CC[C@H]2[C@@H]3CC=C4C[C@@H](O)CC[C@]4(C)[C@H]3CC[C@]12C` the figure was inactive: -12.8%; with `CC(=O)N1CCC2(CCCN(Cc3ccc(C#N)cc3)C2)CC1`, inactive: -9.87%.
With `O=C1[C@H]2[C@H](C=CC[C@H]2C(=O)N2CCN(c3ccccc3)CC2)CCN1Cc1ccccc1` the figure was inactive: -5.5%; with `COc1ccc(-c2cn(Cc3ccc([N+](=O)[O-])cc3)nn2)cc1`, inactive: -7.04%; with `COc1ccc(CNc2ncnc3ccc(-c4ccccc4OC)cc23)c(OC)c1`, inactive: 7.66%.
With `N#Cc1cccc(-c2nc(NCc3ccccc3)c3ccccc3n2)c1` the figure was inactive: -16.5%.
Turning to `Cc1noc(C)c1-c1cc(Nc2ccc(F)cc2)ncn1`, the activation is inactive: -33.7%.
With `O=C(/C=C/c1ccc(O)cc1)c1ccccc1O` the figure was inactive: -4.79%; with `CN[C@@H]1[C@H](O[C@H]2[C@H](O[C@H]3[C@H](O)[C@@H](O)[C@H](N=C(N)N)[C@@H](O)[C@@H]3N=C(N)N)O[C@@H](C)[C@]2(O)CO)O[C@@H](CO)[C@H](O)[C@H]1O`, inactive: -8.54%.
With `COc1ccc2c(c1)-c1nc(-n3ncc(C(=O)NC[C@@H]4CCCN5CCCC[C@H]45)c3C)ncc1CC2` the figure was inactive: -1.31%.
With `C=C1C2CC[C@@]3(C)C(c4ccoc4)OC(=O)C[C@@]13OC1CC(OC(C)=O)C(C)(C)C(CC(=O)OC)[C@@]12C` (stereo not given in full) the figure was inactive: -21.8%; with `Cc1onc(-c2ccccc2Cl)c1C(=O)N[C@@H]1C(=O)N2[C@@H]1SC(C)(C)[C@@H]2C(=O)O`, inactive: -39.2%.
Take `Nc1ccc(S(=O)(=O)Nc2ccccc2)cc1`: the activation was inactive: 11.5%.
With `Cc1cccc(C(=O)NCc2nc(-c3cccc(NC(=O)c4ccoc4C)c3)oc2C)n1` the figure was inactive: -11.3%; with `CC(C)Nc1cccnc1N1CCN(C(=O)c2cc3cc(NS(C)(=O)=O)ccc3[nH]2)CC1`, inactive: -10.8%.
With `CN(CC[C@@H](Oc1ccc(C(F)(F)F)cc1)c1ccccc1)CC(=O)O` the figure was inactive: 1.01%.
In the case of `COc1ncc2nc(-c3cccs3)c(=O)n(CCc3ccccc3)c2n1`, the activation is inactive: 0.143%.
With `NS(=O)(=O)c1cc2c(cc1Cl)NC=NS2(=O)=O` the figure was inactive: -1.59% and inactive: 4.33% and inactive: -4.24%.
As for `Cc1ccc(CN2[C@@H]3c4ccccc4C[C@@H]3OCCS2(=O)=O)cc1`, the activation was inactive: -29.9%.
As to `Cn1c(=O)c2[nH]c(-c3ccccc3)nc2n(C)c1=O`, the activation was inactive: -24.5%.
With `COc1ccc(C(=O)N2CCC3(CCCN(c4ccncc4)C3)CC2)cc1` the figure was inactive: -3.13%; with `COc1ccccc1CNc1ccnc(-c2ccccc2CN(C)C)n1`, inactive: -6.75%.
With `C1CCN2C[C@H]3C[C@H](CN4CCCCC34)C2C1` (stereo not given in full) the figure was inactive: -9.9% and inactive: 4.39%; with `CN[C@@H]1[C@H](O)[C@H](NC)[C@H]2O[C@@]3(O)C(=O)C[C@@H](C)O[C@H]3O[C@@H]2[C@H]1O`, inactive: 11.2% and inactive: -15% and inactive: -21.4%.
With `CCOC(=O)CN(C)C(=O)c1cnn(-c2ncc3c(n2)-c2ccccc2CCC3)c1C` the figure was inactive: -9.8%.
With `c1ccc(CNc2ccnc(-c3ccc4c(c3)OCO4)n2)cc1`, the activation was inactive: 4.21%.
Regarding `CC[C@H]1NC(=O)[C@@H](NC(=O)c2ncccc2O)[C@@H](C)OC(=O)[C@H](c2ccccc2)NC(=O)[C@@H]2CC(=O)CCN2C(=O)[C@H](Cc2ccccc2)N(C)C(=O)[C@@H]2CCCN2C1=O`, the activation is inactive: -7.79%.
For `O=C(c1cnccn1)N1CCC2(CCCN(Cc3ccncc3)C2)CC1`, the activation is inactive: -5.86%.
With `NS(=O)(=O)c1cc2c(cc1Cl)NC(C(Cl)Cl)NS2(=O)=O` (stereo not given) the figure was inactive: 0.9% and inactive: 5.51%; with `C[C@@H]1/C(=N/O)CC2C[C@@H]1C2(C)C`, inactive: -29.7%; with `CN1CCN(C2Cc3ccccc3Sc3ccc(Cl)cc32)CC1` (stereo not given), inactive: -19.4% and inactive: -48.1%.
With `CCC(=O)Nc1ccc(O)cc1` the figure was inactive: -11.1%.
Take `CC(=O)NCCNc1ncncc1-c1ccccc1C(F)(F)F`: the activation is inactive: -4.64%.
With `CCCCCCCC/C=C\C/C=C\C/C=C\CCCC(=O)O` the figure was inactive: -10.2%; with `Cc1csc(SCC(=O)N2CCOc3ccc(C(O)C4CCCCC4)cc3C2)n1` (stereo not given), inactive: 1.02%.
For the compound `CN(Cc1ccco1)c1ccnc(-c2ccoc2)n1`, the activation is inactive: -6.64%.
With `CCC1CN(CCNC(=O)c2scc3c2OCCO3)Cc2cc(OC)ccc2O1` (stereo not given) the figure was inactive: 0.0055%; with `C/C(=C(/CCO)SSCC1CCCO1)N(C=O)Cc1cnc(C)nc1N` (stereo not given), inactive: 4.57% and inactive: -0.574%.
With `CN(C)C(=O)c1ccc(/C=C/c2ccnc3ccccc23)cc1` the figure was inactive: -1.79%; with `CCC1CN(CCNC(=O)c2cccc(C(=O)OC)c2)Cc2cc(OC)ccc2O1` (stereo not given), inactive: 2.43%; with `C=C(NC(=O)C(=C)NC(=O)c1csc(C2=NC3c4csc(n4)C4NC(=O)c5csc(n5)C(C(C)(O)C(C)O)NC(=O)C5CSC(=N5)C(=CC)NC(=O)C(C(C)O)NC(=O)c5csc(n5)C3(CC2)NC(=O)C(C)NC(=O)C(=C)NC(=O)C(C)NC(=O)C(C(C)CC)NC2C=Cc3c(C(C)O)cc(nc3C2O)C(=O)OC4C)n1)C(N)=O` (stereo not given), inactive: -39.9%.
With `COc1ccccc1C1CN(Cc2cccc(O)c2)Cc2ccccc2O1` (stereo not given) the figure was inactive: -12.2%; with `O=C(c1cccnc1)C1CCCN(Cc2ccc3c(c2)CN(C(=O)c2cnccn2)CCO3)C1` (stereo not given), inactive: -21.1%; with `CCC(=O)OCC(=O)C1(OC(=O)CC)C(C)CC2C3C(Cl)CC4=CC(=O)C=C[C@@]4(C)C3C(O)C[C@@]21C` (stereo not given in full), inactive: -2.32%.
In the case of `CN[C@H](CC(=O)O)C(=O)O`, the activation was inactive: -34.9% and inactive: 5.49% and inactive: -9.11%.
With `CCCCCC(O)/C=C/C=O` (stereo not given), the activation is inactive: -7.63%.
With `Cc1c(C(=O)N2CC3CCC2C3)sc2ncnc(NCc3ccco3)c12` (stereo not given) the figure was inactive: -12.2%; with `Cc1c(-c2ccccc2)oc2c(C(=O)OCCN3CCCCC3)cccc2c1=O`, inactive: -2.51%; with `Cn1cccc1C(=O)N1CCC2(CCN(Cc3ccncc3)CC2)CC1`, inactive: -7.85%.
With `C#Cc1cccc(C(=O)NCc2nc(-c3cccc(NC(=O)c4ccccn4)c3)oc2C)c1` the figure was inactive: 11.2%; with `COc1ccccc1CN1CCCC2(CCN(S(C)(=O)=O)CC2)C1`, inactive: -11.2%; with `COC(=O)c1cccc(C(=O)N2CCc3c(C(=O)OC)c(OCc4ccccn4)cc(=O)n3CC2)c1`, inactive: 1.38%.
In the case of `NC(=O)NCC(N)C(=O)O` (stereo not given), the activation was inactive: -8.2%.
With `CCCCCCCCCCCCCCCCCCCCCCO` the figure was inactive: 7.7%.
With `NCCc1cnc[nH]1` the figure was inactive: 10.6% and inactive: 6% and inactive: -13.9%; with `COc1c2c(c(C(=O)/C=C/C(C)=C/c3ccccc3)c3c1OCO3)CCN(C)C2`, inactive: -15.9%; with `COc1ccc(O)cc1`, inactive: -14.3%.
With `CCCN1CCC(=O)N([C@H](CN=[N+]=[N-])Cc2ccccc2)CC1` the figure was inactive: -11.3%.
Regarding `CN(C)c1ncc2ncc(=O)n(CCC#N)c2n1`, the activation was inactive: -8.96%.
With `CC(=O)NC(Cc1ccccc1)C(=O)O` (stereo not given) the figure was inactive: -7.16%; with `O=C(OC1C[C@@H]2CC3C[C@H](C1)N2CC3=O)c1c[nH]c2ccccc12` (stereo not given in full), inactive: 8.91%; with `CN(C)c1ncc2nc(-c3ccc(F)cc3)c(=O)n(Cc3ccc(F)cc3)c2n1`, inactive: 7.05%.
With `COc1ccccc1-n1cc(CN2CCC3(CCC(CNC(=O)c4ccccc4)O3)CC2)cn1` (stereo not given) the figure was inactive: -12.5%; with `Nc1ncnc2c1nc(Cl)n2C1OC(CO)C(O)C1O` (stereo not given), inactive: -8.09%; with `CN(N=O)C(=O)N[C@@H]1[C@@H](O)[C@H](O)[C@@H](CO)O[C@@H]1O`, inactive: -5.69%.
With `NCCCC(=O)O` the figure was inactive: -6.05% [middle of 4 runs]; with `Cc1ccc(-c2nn(C(C)(C)C)c3ncnc(N)c23)cc1`, inactive: -3.22% and inactive: -10.8%; with `COC(=O)c1cccc(C(=O)NCc2nc(-c3cccc(NC(=O)c4ccoc4C)c3)oc2C)c1`, inactive: 3.37%.
With `C=C[C@]1(C)Cc2occ(C)c2C[C@H]1C(=C)C(=O)O`, the activation is inactive: -18.8%.
With `COc1ccc(C(=O)C[N+]2(C)CCOCC2)cc1` the figure was inactive: -35.6%; with `CCN(CC)CCOC(=O)c1ccc(N)cc1Cl`, inactive: -11.9%.
With `COCCn1c(=O)c(C)nc2cnc(Nc3ccccc3)nc21` the figure was inactive: -1.49%; with `C=C(C(=O)O)[C@@H]1CC[C@@]2(C)CCC[C@](C)(O)[C@@H]2C1`, inactive: -21.4%.
With `NC/C=C\C(=O)O` the figure was inactive: -3.82% and inactive: 11.6% and inactive: -20.2%.
For `COc1ccc(CN2CCCC(c3nc(-c4ccncc4)ncc3-c3ccccc3)C2)c(OC)c1OC` (stereo not given), the activation is inactive: -32.3%.
